The whole screen tested about 72,000 compounds, of which about 710 (0.99%) were called active. The shares of active, inactive and inconclusive entries below differ from those in the screen. The call rests on the fitted dose curve; in most records, active means well fitted inhibition curve with a large enough effect; inconclusive means small, poorly fitted or top-dose-only effect; inactive means no such curve, though single readings can be large or run the other way. Where the call is inconclusive, the potency comes from a doubtful curve fit.
Assay: qHTS Assay for Inhibitors of the ERK Signaling Pathway using a Homogeneous Screening Assay; further: nearly all actives have a fitted effect of over 55% in size
Settings: HEK293-V1b, vasopressin-stimulated pERK AlphaScreen; activity, negative = inhibition: at 57.5 µM (top of the series) unless noted
Method in brief: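 Phosphorylated ERK1/2 detected via AlphaScreen bead proximity in lysates of V1b-expressing HEK293 cells given 25 nM vasopressin for 5 min after 30 min compound exposure (37 °C). AC50 from Hill equation; basal DMSO 0%, vasopressin 100%.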
On the % scale 0 is the no-effect control and ±100 the full control effect; potency means the concentration at half of the fitted maximal effect; tags describe the fitted curve by direction and shape.

Potency, inconclusive:
CC(=O)N1CCC2(CC1)C(C#N)=C(N)Oc1n[nH]c(CSc3ccc(C)cc3)c12 25.1 µM [inhibitor, single point]
CCC1CCCCN1CCCNC(=O)c1ccc(CS(=O)(=O)Cc2ccccc2F)o1 (stereo not drawn) 3.98 µM [inhibitor, partial curve]
CCn1c(SCC(=O)Nc2nc(-c3ccccc3)cs2)nnc1-c1ccccc1O 31.6 µM [inhibitor, single point]
COc1ccc2cccc(N3CCN(CCNC(=O)c4ccc(F)cc4)CC3)c2c1 39.8 µM [inhibitor, partial curve, poor fit]
CC(C)OC(=O)CSc1nnc(-c2ccc(O)cc2)n1Cc1ccccc1 39.8 µM [inhibitor, single point]
CCCCNC(=O)c1ccccc1NS(=O)(=O)c1ccc2c(c1)OCCO2 39.8 µM [inhibitor, single point]
CCN(Cc1ccccc1)C(=O)CC1Oc2ccccc2NC1=O (stereo not drawn) 0.0398 µM [inhibitor, full curve, poor fit]
CCOC(=O)Nc1ccc2c(c1)N(C(=O)N1CCN(C)CC1)c1ccccc1S2 39.8 µM [inhibitor, single point]
Cn1c(C(O)c2ccc3c(c2)OCO3)nc2ccccc21 (stereo not drawn) 20 µM [inhibitor, partial curve]
CCOC(=O)c1ccc(NC(=O)CCc2nc(-c3ccc(C)cc3)no2)cc1 20 µM [inhibitor, partial curve]
O=C(c1ccc(COc2ccc(Cl)cc2)o1)N1CCN(Cc2ccc3c(c2)OCO3)CC1 31.6 µM [inhibitor, single point]
CC1(C)CCC2=C(O1)c1ccccc1C(=O)C2=O 31.6 µM [inhibitor, partial curve]
CNc1nc(-c2ccc3c(c2)OCO3)nc2ccccc12 25.1 µM [inhibitor, partial curve]
N[C@@H](Cc1cc(-c2ccc(Cl)cc2Cl)cc(CP(=O)(O)O)c1O)C(=O)O 31.6 µM [inhibitor, partial curve, poor fit]
O=C(Nc1nccs1)c1cc2sccc2n1Cc1ccc(F)cc1 0.126 µM [inhibitor, full curve]
CCOC(=O)c1sc2nc(N3CCOCC3)c3c(c2c1N)CCC3 31.6 µM [inhibitor, partial curve, poor fit]
CC(C)c1ccc(CNc2ccc(N3CCOCC3)cc2)cc1 39.8 µM [inhibitor, single point]
Cc1cccc(Nc2nc3c(c(=O)n(C)c(=O)n3C)n2Cc2ccccc2)c1 3.16 µM [inhibitor, full curve]
O=C(CSc1nc2ccccc2o1)c1ccc2c(c1)OCCO2 39.8 µM [inhibitor, single point]
COc1cccc(C(=O)Nc2c3c(nn2-c2cccc(C)c2C)CS(=O)(=O)C3)c1OC 12.6 µM [inhibitor, partial curve]
Cc1c(C(=O)O)[nH]c2c1C(=O)CC(c1ccc(Cl)cc1)C2 (stereo not drawn) 39.8 µM [inhibitor, single point]
COc1ccc2c(c1)c1nnc(SCC(=O)N3C(C)CCCC3C)nc1n2C (stereo not drawn) 3.16 µM [inhibitor, full curve]
COc1ccc2c(C)c(C(=O)NCC(C)O)oc2c1OC (stereo not drawn) 0.01 µM [inhibitor, full curve, poor fit]
O=C(Nc1ccc2c(c1)OCCO2)C1CCCN(S(=O)(=O)c2cccs2)C1 (stereo not drawn) 15.8 µM [inhibitor, partial curve]
CCOC(=O)C1CCN(c2nc3cc(OC)ccc3cc2C#N)CC1 15.8 µM [inhibitor, partial curve]
Cc1cc(C(=O)COc2ncnc3sccc23)c(C)n1C 20 µM [inhibitor, partial curve, poor fit]
COc1ccc(C2=NO[C@@H]3C(=O)N(C4CCCCC4)C(=O)[C@H]23)cc1OC 3.16 µM [inhibitor, full curve, poor fit]
O=C(/C=C/N1CCOCC1)c1ccc(-c2ccccc2)cc1 25.1 µM [inhibitor, partial curve, poor fit]
O=S(=O)(Nc1nc2ccccc2nc1Nc1ccc2c(c1)OCCO2)c1cccs1 31.6 µM [inhibitor, single point]
Cc1cnc(C(=O)OCC(=O)Nc2cccc(Cl)c2)cn1 39.8 µM [inhibitor, single point]
CC(C)COC(=O)N(C)c1ccc(C(O)(C(F)(F)F)C(F)(F)F)cc1 25.1 µM [inhibitor, single point]
COc1ccc(-c2noc(COc3ccc4c(c3)OCO4)n2)cc1OC 3.16 µM [inhibitor, full curve, poor fit]

Potency, inactive:
C[C@@H](C(=O)O)c1ccc(C[C@@H]2CCCC2=O)cc1
O=C(Nc1cccc(Cl)c1)N1CCN(Cc2ccccc2)CC1
O=C(Cc1ccccc1)Nc1nc(-c2cccs2)cs1
Cn1cccc1C(=O)N1CCC2(CC1)CN(C(=O)Nc1cccc(C#N)c1)C2
Oc1cccc(C(=S)N2CCN(Cc3ccccc3)CC2)c1
COc1cc2c(c(OC)c1)C(c1cccc(OC)c1OC)CC(=O)N2 (stereo not drawn)
COc1cccc(C(=O)Nc2c(F)c(F)c(F)c(F)c2F)c1
COc1ccc(-n2nnnc2S(=O)(=O)CC(=O)N2CCCCC2)cc1
COc1ccc(NC(=O)N2CCCC3(CCN(C(=O)c4ccncc4)CC3)C2)cc1
O=C(Cn1c(C(=O)NCc2ccco2)cc2sccc21)c1ccccc1

activity, negative = inhibition, inconclusive:
CS(=O)(=O)N(Cc1ccco1)CC(O)Cn1c2ccccc2c2ccccc21 (stereo not drawn) -31.3% [inhibitor]

Source: PubChem BioAssay AID995 (National Center for Advancing Translational Sciences (NCATS), 2007)
